In PubChem BioAssay AID651820 (National Center for Advancing Translational Sciences (NCATS), 2012):
The campaign covered roughly 340,000 compounds. About 12,000 (3.5%) were called active. The shares of active, inactive and inconclusive entries below differ from those in the screen. The call rests on the fitted dose curve; in most records, active means well fitted inhibition curve with a large enough effect; inconclusive means small, poorly fitted or top-dose-only effect, or another doubt; inactive means no such curve, though single readings can be large or run the other way. No potency is given beside an inconclusive call; the fits are too rough.

Experiment: qHTS Assay for Inhibitors of Hepatitis C Virus (HCV)
Conditions: Huh7.5.1 HCVcc-Cre (HCVcc is cell-culture hepatitis C virus) infection, luciferase reporter, 44 h; series mostly up to 41.8 µM
How it was run: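 Whole-lifecycle infectious HCVcc-Cre system; cells 1,000/well, compound then virus (~0.5 moi) added 4 h after plating, 44 h culture. Luciferase read 15 sec following 15 min substrate incubation, room temp.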
Potency means the concentration at half of the fitted maximal effect; tags describe the fitted curve by direction and shape.

Structure (SMILES)	Potency
Cc1cc(N2CCOCC2)n2nc(-c3cccc(F)c3)cc2n1	inconclusive [inhibitor, full curve]
Cc1ccccc1CC1(CO)CCCN(C(=O)c2cc(Cl)ccc2F)C1 (configuration not stated)	inactive
CCCC1=C(C(=O)OCC)C(/C=C/c2ccccc2)n2ncnc2N1 (configuration not stated)	inconclusive [inhibitor, single point]
Cc1[nH]c2ccccc2c1C(=O)C(=O)N1CCN(c2cccc(Cl)c2)CC1	inconclusive [inhibitor, single point]
C[C@H](CO)N1C[C@H](C)[C@@H](CN(C)CC2CC2)Oc2c(NS(=O)(=O)c3ccc(F)cc3)cccc2C1=O	inconclusive [inhibitor, single point]
CCOC(=O)c1c(NC(=O)COc2ncnc3sccc23)sc2c1CCC2	inactive
CC(Oc1ccc(C(=O)c2ccc(F)cc2)cc1)C(=O)N1CCOCC1 (configuration not stated)	inactive
Cc1cc(Br)ccc1OCC(=O)N(Cc1nc(-c2ccccc2)no1)C(C)C	inconclusive [inhibitor, single point]
COc1ccc(N(CC(=O)NCc2ccc(F)cc2)C(=O)Cn2nnc(-c3ccc(C)o3)n2)cc1OC	inactive
O=C(NCCN1C(=O)S/C(=C\c2ccc(F)cc2)C1=O)c1cccc(S(=O)(=O)N2CCOCC2)c1	active: 10 µM
Cc1ccccc1OCC(=O)Nc1cccc2nsnc12	inconclusive [inhibitor, single point]
Cc1ccc(C(=O)NNC(=S)Nc2cccc3ccccc23)s1	inactive
COc1ccccc1CN1[C@@H](CC(=O)O)c2cc(F)ccc2S1(=O)=O	inconclusive [inhibitor, single point]
O=S(=O)(CCSc1ccc(C(F)(F)F)cn1)c1ccccc1	inactive
CCC(CC)C(=O)N1CCN(c2cccc(C)c2C)CC1	inconclusive [inhibitor, single point]
Cc1ccc(NC(=S)NCCc2c[nH]c3ccccc23)c(C)c1	inconclusive [inhibitor, partial curve]
COC(=O)[C@]1(Cc2ccccc2)N[C@H](CN(C)S(=O)(=O)c2ccc(C(C)(C)C)cc2)[C@@H]2C(=O)N(Cc3ccccc3)C(=O)[C@@H]21	inconclusive [inhibitor, full curve]
CC1(C)Cc2c(sc3nc(-c4ccccc4)n(N)c(=O)c23)CO1	inactive
CC12CCC(C(=O)N(CSC(=S)N/N=C\c3ccccc3)C1=O)C2(C)C (configuration not stated)	inactive
C=CCn1c(SCC(=O)c2ccccc2)nnc1-c1cc2ccccc2o1	inconclusive [inhibitor, single point]
COc1cccc(OC)c1C(=O)Nc1ccncc1	inactive
c1ccc2c(Cn3ccnc3)c[nH]c2c1	inactive
Cc1cc(C)cc(-n2nnnc2SCC(=O)Nc2nc(-c3ccc(F)cc3)cs2)c1	inconclusive [inhibitor, full curve]
Cc1ccc(NC(=O)C[n+]2cc(-c3ccccc3)n3c2CCC3)c(C)c1	inactive

Structure (SMILES)	Potency
COC(=O)c1ccc(CN2CCC(Oc3cccc(C(=O)N4CCOCC4)c3)CC2)cc1	inconclusive [inhibitor, single point]
CCc1c(C)nc2ncnn2c1NCCc1ccc(OC)cc1	active: 5.62 µM
Cc1ccc(NC(=O)CN(C)CC(=O)N(C)Cc2ccccc2)cc1	inactive
CCc1cc(C(=O)NCC2CCCO2)sc1C (configuration not stated)	inactive
COC(=O)C1=C(c2cccc(OC)c2OC)C[C@@H]2CC[C@H]1N2C(=O)NCc1ccc(C(F)(F)F)cc1	inconclusive [inhibitor, full curve, poor fit]
O=[N+]([O-])c1cccc(-c2csc(Nc3ccccc3)n2)c1	active: 1.58 µM
O=C(C1CCCN(c2ncnc3c2nc2n3CCCCC2)C1)N1CCCCC1 (configuration not stated)	inactive
CCOCCCNC(=O)/C(C#N)=C/c1cc(Br)c(O)c(Br)c1	inactive
C=CCOc1ccc(/C=N/NC(=O)CN2CCCCC2)cc1OC	inactive
Cn1c(CCNC(=O)c2ccc(Cl)c(Cl)c2)nnc1SCc1ccc(Cl)c(Cl)c1	inconclusive [inhibitor, partial curve]
Clc1cc2nc3ccccn3c2cc1Cl	active: 25.1 µM
O=C(Cn1cnc2cc([N+](=O)[O-])ccc2c1=O)Nc1ccccc1-c1ccccc1	inconclusive [inhibitor, single point]
CC1CCN(c2nc(-c3ccncc3)nc3ccccc23)CC1	active: 7.08 µM
Cn1cccc1C(=O)OCC(=O)Nc1cc(C(C)(C)C)nn1-c1ccccc1	inconclusive [inhibitor, single point]
Cc1cc(C)cc(NC(=O)CN2CCCN(S(=O)(=O)c3ccc(Br)s3)CC2)c1	inconclusive [inhibitor, partial curve]
CCOC(=O)C(=CNc1cc(Cl)c(-c2ccco2)c(Cl)c1)C(=O)OCC	active: 12.6 µM
Cc1cc2c(c(C)c1CCO)C(=O)[C@H](C)C2	inconclusive [inhibitor, single point]
CCCn1nnc(NC(=O)c2cccc(OCC(C)C)c2)n1	inconclusive [inhibitor, full curve]
CCOc1ccc(-n2c(SCC(=O)Nc3ccc(OC)cc3OC)nc3c(c2=O)SCC3)cc1	inconclusive [inhibitor, full curve, poor fit]
CCCCN1C(=O)c2ccc(C(=O)Nc3ccc(C)c(S(=O)(=O)N(C)C)c3)cc2C1=O	inconclusive [inhibitor, single point]
COc1ccc(C(CCN2CCCCC2)c2c(OC)cc(OC)c3c(-c4ccccc4)cc(=O)oc23)cc1 (configuration not stated)	active: 2.82 µM
CCN1C(=O)[C@H]2[C@@H](c3ccc(-c4ccc(OC)cc4)cc3)N[C@@](Cc3ccccc3)(C(=O)OC)[C@H]2C1=O	inconclusive [inhibitor, single point]
O=C(CCc1ccccc1)Nc1ccc(N2CCOCC2)c(Cl)c1	inconclusive [inhibitor, single point]
